Source: patent US20250122280A1, “ANTI-Ly6E ANTIBODIES, IMMUNOCONJUGATES, AND USES THEREOF” (Genentech, Inc., priority 2022, published 2025)

Biological target: T1, Ly6E (Homo sapiens, UniProt Q16553)
T1 sequence (Q16553 21-101): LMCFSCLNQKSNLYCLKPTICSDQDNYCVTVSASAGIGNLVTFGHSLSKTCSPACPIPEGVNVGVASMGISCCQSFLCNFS
Test: Flow cytometry binding of anti-Ly6E antibodies to cells expressing Ly6E
Details: Kuramochi, NCI-H1781, HCC1569x2, compared with 9B12
Method: Chimeric anti-Ly6E was compared to a previously described anti-Ly6E antibody (9B12) (Asundi et al., Clin. Canc. Res. 2015, 3252-3262) for binding to cells expressing Ly6E. Cell lines were cultured as recommended by the ATCC. Prior to staining adherent lines were released by Accutase treatment, all cells were filtered and equilibrated in BD Stain buffer (BSA). Cells were stained with primary antibodies at indicated concentrations for 1 h at 4° C., washed ×3, stained with secondary Ab (Jackson ImmunoResearch 109-606-003) (1:100) for 1 h at 4° C., washed, stained with Fixable Viability Dye eFluor 780 (1:1000) for 1 h at 4° C., and washed ×2. Samples were fixed in 1% PFA (PBS) prior to analysis. Samples were assessed on a BD LSRFortessa. Following exclusion of dead cells, singlets were assessed for antibody binding using FlowJo software (FIGS. 2A-2C).
The Ly6E antibody was humanized by grafting the HC and LC CDRs into human germline frameworks (IGHV3-73*01/IGHJ1*01 and IGKV1-33*01/IGKJ2*01 respectively) and iterating between human and rat residues at Vernier positions to maximize binding while minimizing non-human residues. […] Cysteine residues were incorporated at previously described positions to enable generation on THIOMAB® antibodies (Ohri et al., Bioconj Chem. 2018, 473-485). […]

binding to cells expressing Ly6E: enhanced binding compared to 9B12
B1: Chimeric anti-Ly6E: rat-human chimeric anti-Ly6E antibody clone 3A3 (SEQ ID NOs. 4 and 6) (protein)
light: DIVMTQSPTSISISVGERVTMNCKASQNVGSNVDWYQQKTGQSPELLIYKASNRYTGVPGRFTGSGSGTDFTFTISNLQAEDLAVYYCMQSDTKYTFGAGTKVEIKRTVAAPSVFIFPPSDEQLKSGTASVVCLLNNFYPREAKVQWKVDNALQSGNSQESVTEQDSKDSTYSLSSTLTLSKADYEKHKVYACEVTHQGLSSPVTKSFNRGEC
heavy: AVQLVEFGGGLVQPKESLKISCAASGFTFSTVAMHWVRQAPGKGLEWIARIRTKPVNYETYYADSVKGRFTISRDDSKSMVYLQMDNLKTEDAAMYYCSAPNYYDGTYSFAYWGQGTLVTVSS[sequence of human IgG1 constant region omitted]
modifications: Chimeric variable light chain amino acid sequence of anti-Ly6E antibody clone 3A3; Chimeric heavy chain amino acid sequence of anti-Ly6E antibody clone 3A3
